Laboratory results reported in patent publication US20140105889A1.

What was measured:
[1] = target: human FcγRIIIa(F) (human) (UniProt P08637); assay: SPR (Biacore), antibody captured, FcγR as analyte
[2] = target: human FcγRIIIa(F) (human) (UniProt P08637); assay: SPR (Biacore), captured antibody, FcγR analyte; bound amount relative to GpH7-B3/GpL16-k0 x100
human FcγRIIa(R) (human) = human FcγRIIa(R) (human) (UniProt P12318); assay: Biacore, captured antibody, FcγR analyte
[3] = target: human FcγRIIIa(F) (human) (UniProt P08637); assay: Biacore, captured antibody, FcγR analyte
human FcγRIa (human) [4] = target: human FcγRIa (human) (UniProt P12314); assay: Biacore, captured antibody, FcγR analyte
human FcγRIIa(H) (human) [5] = target: human FcγRIIa(H) (human) (UniProt P12318); assay: SPR (Biacore), captured antibody, FcγR analyte; bound/captured amount vs control x100
human FcγRIa (human) [6] = target: human FcγRIa (human) (UniProt P12314); assay: as above
human FcγRIIb (human) [7] = target: human FcγRIIb (human) (UniProt P31994); assay: as above
human FcγRIIa(H) (human) [8] = target: human FcγRIIa(H) (human) (UniProt P12318); assay: SPR (Biacore), captured antibody, FcγR analyte; bound amount per captured amount vs GpH7-B3/GpL16-k0 x100
[9] = target: human FcγRIIIa(F) (human) (UniProt P08637); assay: as above
human FcγRIIb (human) [10] = target: human FcγRIIb (human) (UniProt P31994); assay: as above

UniProt P08637, sequence (P08637 other isoform, or with tags, fused parts or gaps limits assumed): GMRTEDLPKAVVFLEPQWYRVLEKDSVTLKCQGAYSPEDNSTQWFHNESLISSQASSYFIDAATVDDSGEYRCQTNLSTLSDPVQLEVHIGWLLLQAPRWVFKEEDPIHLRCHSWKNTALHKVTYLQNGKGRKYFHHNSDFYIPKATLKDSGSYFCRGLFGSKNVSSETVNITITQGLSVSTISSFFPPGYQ
UniProt P31994, sequence (P31994 43-217 limits assumed): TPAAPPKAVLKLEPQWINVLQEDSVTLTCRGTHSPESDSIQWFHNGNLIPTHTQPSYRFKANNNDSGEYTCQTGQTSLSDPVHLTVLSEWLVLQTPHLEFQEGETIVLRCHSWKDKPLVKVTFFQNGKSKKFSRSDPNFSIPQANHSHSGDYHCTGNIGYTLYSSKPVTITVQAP
UniProt P12314, sequence (P12314 16-292 limits assumed): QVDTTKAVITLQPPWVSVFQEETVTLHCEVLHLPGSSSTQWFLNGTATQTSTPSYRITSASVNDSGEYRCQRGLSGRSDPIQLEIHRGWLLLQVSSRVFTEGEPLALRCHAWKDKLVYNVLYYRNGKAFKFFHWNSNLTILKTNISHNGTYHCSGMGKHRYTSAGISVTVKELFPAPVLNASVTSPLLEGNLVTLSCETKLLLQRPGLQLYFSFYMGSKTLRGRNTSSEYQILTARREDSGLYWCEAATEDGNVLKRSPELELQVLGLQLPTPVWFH

B1: GpH7-B3 D270Y / GpL16-k0 (antibody, human IgG1)
heavy: QVQLVQSGAEVKKPGASVTVSCKASGYTFTDYEMHWIRQPPGEGLEWIGAIDPKTGDTAYSESFQDRVTLTADKSTSTAYMELSSLTSEDTAVYYCTRFYSYTYWGQGTLVTVSS[here human IgG1 constant region with D270Y K439E (EU numbers) without letters]
light: DIVMTQSPLSLPVTPGEPASISCQASESLVHSNRNTYLHWYLQKPGQSPQLLIYKVSNRFSGVPDRFSGSGSGTDFTLKISRVEAEDVGVYYCSQNTHVPPTFGQGTKVEIE
[1]
  relative binding activity (amount bound / amount bound by GpH7-B3/GpL16-k0 x100) (% of GpH7-B3/GpL16-k0): 9

B2: GpH7-B3 D270T / GpL16-k0 (antibody, human IgG1)
heavy: QVQLVQSGAEVKKPGASVTVSCKASGYTFTDYEMHWIRQPPGEGLEWIGAIDPKTGDTAYSESFQDRVTLTADKSTSTAYMELSSLTSEDTAVYYCTRFYSYTYWGQGTLVTVSS[here human IgG1 constant region with D270T K439E (EU numbers) without letters]
light: B1 light
[1]
  relative binding activity (amount bound / amount bound by GpH7-B3/GpL16-k0 x100) (% of GpH7-B3/GpL16-k0): 9

B3: GpH7-B3 Y296P / GpL16-k0 (antibody, human IgG1)
heavy: QVQLVQSGAEVKKPGASVTVSCKASGYTFTDYEMHWIRQPPGEGLEWIGAIDPKTGDTAYSESFQDRVTLTADKSTSTAYMELSSLTSEDTAVYYCTRFYSYTYWGQGTLVTVSS[here human IgG1 constant region with Y296P K439E (EU numbers) without letters]
light: B1 light
[1]
  relative binding activity (amount bound / amount bound by GpH7-B3/GpL16-k0 x100) (% of GpH7-B3/GpL16-k0): 8

B4: GpH7-B3/GpL16-k0 with A327I introduced into GpH7-B3 (antibody, human IgG1)
heavy: QVQLVQSGAEVKKPGASVTVSCKASGYTFTDYEMHWIRQPPGEGLEWIGAIDPKTGDTAYSESFQDRVTLTADKSTSTAYMELSSLTSEDTAVYYCTRFYSYTYWGQGTLVTVSS[here human IgG1 constant region with A327I K439E (EU numbers) without letters]
light: B1 light
[2]
  relative binding activity (% of GpH7-B3/GpL16-k0): 8

B5: GpH7-B3 L234G/GpL16-k0 (antibody, human IgG1)
heavy: QVQLVQSGAEVKKPGASVTVSCKASGYTFTDYEMHWIRQPPGEGLEWIGAIDPKTGDTAYSESFQDRVTLTADKSTSTAYMELSSLTSEDTAVYYCTRFYSYTYWGQGTLVTVSS[here human IgG1 constant region with L234G K439E (EU numbers) without letters]
light: B1 light
Human FcγRIIa(R) (human)
  relative binding activity (% of GpH7-B3/GpL16-k0): 9

B6: GpH7-B3 L235R/GpL16-k0 (antibody, human IgG1)
heavy: QVQLVQSGAEVKKPGASVTVSCKASGYTFTDYEMHWIRQPPGEGLEWIGAIDPKTGDTAYSESFQDRVTLTADKSTSTAYMELSSLTSEDTAVYYCTRFYSYTYWGQGTLVTVSS[here human IgG1 constant region with L235R K439E (EU numbers) without letters]
light: B1 light
[3]
  relative binding activity (% of GpH7-B3/GpL16-k0): 9

B7: GpH7-B3 L235T/GpL16-k0 (antibody, human IgG1)
heavy: QVQLVQSGAEVKKPGASVTVSCKASGYTFTDYEMHWIRQPPGEGLEWIGAIDPKTGDTAYSESFQDRVTLTADKSTSTAYMELSSLTSEDTAVYYCTRFYSYTYWGQGTLVTVSS[here human IgG1 constant region with L235T K439E (EU numbers) without letters]
light: B1 light
Human FcγRIa (human) [4]
  relative binding activity (% of GpH7-B3/GpL16-k0): 8

B8: GpH7-B3 G236M/GpL16-k0 (antibody, human IgG1)
heavy: QVQLVQSGAEVKKPGASVTVSCKASGYTFTDYEMHWIRQPPGEGLEWIGAIDPKTGDTAYSESFQDRVTLTADKSTSTAYMELSSLTSEDTAVYYCTRFYSYTYWGQGTLVTVSS[here human IgG1 constant region with G236M K439E (EU numbers) without letters]
light: B1 light
[3]
  relative binding activity (% of GpH7-B3/GpL16-k0): 9

B9: GpH7-B3 G236Q/GpL16-k0 (antibody, human IgG1)
heavy: QVQLVQSGAEVKKPGASVTVSCKASGYTFTDYEMHWIRQPPGEGLEWIGAIDPKTGDTAYSESFQDRVTLTADKSTSTAYMELSSLTSEDTAVYYCTRFYSYTYWGQGTLVTVSS[here human IgG1 constant region with G236Q K439E (EU numbers) without letters]
light: B1 light
[3]
  relative binding activity (% of GpH7-B3/GpL16-k0): 8

B10: GpH7-B3 G236K/GpL16-k0 (antibody, human IgG1)
heavy: QVQLVQSGAEVKKPGASVTVSCKASGYTFTDYEMHWIRQPPGEGLEWIGAIDPKTGDTAYSESFQDRVTLTADKSTSTAYMELSSLTSEDTAVYYCTRFYSYTYWGQGTLVTVSS[here human IgG1 constant region with G236K K439E (EU numbers) without letters]
light: B1 light
Human FcγRIIa(R) (human)
  relative binding activity (% of GpH7-B3/GpL16-k0): 9

B11: GpH7-B3 G236N/GpL16-k0 (antibody, human IgG1)
heavy: QVQLVQSGAEVKKPGASVTVSCKASGYTFTDYEMHWIRQPPGEGLEWIGAIDPKTGDTAYSESFQDRVTLTADKSTSTAYMELSSLTSEDTAVYYCTRFYSYTYWGQGTLVTVSS[here human IgG1 constant region with G236N K439E (EU numbers) without letters]
light: B1 light
[3]
  relative binding activity (% of GpH7-B3/GpL16-k0): 8

B12: GpH7-B3 G237A/GpL16-k0 (antibody, human IgG1)
heavy: QVQLVQSGAEVKKPGASVTVSCKASGYTFTDYEMHWIRQPPGEGLEWIGAIDPKTGDTAYSESFQDRVTLTADKSTSTAYMELSSLTSEDTAVYYCTRFYSYTYWGQGTLVTVSS[here human IgG1 constant region with G237A K439E (EU numbers) without letters]
light: B1 light
Human FcγRIIa(H) (human) [5]
  relative binding activity (% of GpH7-B3/GpL16-k0): 9

B13: GpH7-B3 P238K/GpL16-k0 (antibody, human IgG1)
heavy: QVQLVQSGAEVKKPGASVTVSCKASGYTFTDYEMHWIRQPPGEGLEWIGAIDPKTGDTAYSESFQDRVTLTADKSTSTAYMELSSLTSEDTAVYYCTRFYSYTYWGQGTLVTVSS[here human IgG1 constant region with P238K K439E (EU numbers) without letters]
light: B1 light
Human FcγRIa (human) [6]
  relative binding activity (% of GpH7-B3/GpL16-k0): 8

B14: GpH7-B3 P238T/GpL16-k0 (antibody, human IgG1)
heavy: QVQLVQSGAEVKKPGASVTVSCKASGYTFTDYEMHWIRQPPGEGLEWIGAIDPKTGDTAYSESFQDRVTLTADKSTSTAYMELSSLTSEDTAVYYCTRFYSYTYWGQGTLVTVSS[here human IgG1 constant region with P238T K439E (EU numbers) without letters]
light: B1 light
Human FcγRIIb (human) [7]
  relative binding activity (% of GpH7-B3/GpL16-k0): 8

B15: GpH7-B3 S239W/GpL16-k0 (antibody, human IgG1)
heavy: QVQLVQSGAEVKKPGASVTVSCKASGYTFTDYEMHWIRQPPGEGLEWIGAIDPKTGDTAYSESFQDRVTLTADKSTSTAYMELSSLTSEDTAVYYCTRFYSYTYWGQGTLVTVSS[here human IgG1 constant region with S239W K439E (EU numbers) without letters]
light: B1 light
Human FcγRIIa(H) (human) [5]
  relative binding activity (% of GpH7-B3/GpL16-k0): 9

B16: GpH7-B3 V266F/GpL16-k0 (antibody, human IgG1)
heavy: QVQLVQSGAEVKKPGASVTVSCKASGYTFTDYEMHWIRQPPGEGLEWIGAIDPKTGDTAYSESFQDRVTLTADKSTSTAYMELSSLTSEDTAVYYCTRFYSYTYWGQGTLVTVSS[here human IgG1 constant region with V266F K439E (EU numbers) without letters]
light: B1 light
Human FcγRIIa(H) (human) [8]
  relative binding activity (% of GpH7-B3/GpL16-k0): 8

B17: GpH7-B3 E269R/GpL16-k0 (antibody, human IgG1)
heavy: QVQLVQSGAEVKKPGASVTVSCKASGYTFTDYEMHWIRQPPGEGLEWIGAIDPKTGDTAYSESFQDRVTLTADKSTSTAYMELSSLTSEDTAVYYCTRFYSYTYWGQGTLVTVSS[here human IgG1 constant region with E269R K439E (EU numbers) without letters]
light: B1 light
[9]
  relative binding activity (% of GpH7-B3/GpL16-k0): 7

B18: GpH7-B3 E269H/GpL16-k0 (antibody, human IgG1)
heavy: QVQLVQSGAEVKKPGASVTVSCKASGYTFTDYEMHWIRQPPGEGLEWIGAIDPKTGDTAYSESFQDRVTLTADKSTSTAYMELSSLTSEDTAVYYCTRFYSYTYWGQGTLVTVSS[here human IgG1 constant region with E269H K439E (EU numbers) without letters]
light: B1 light
Human FcγRIIb (human) [10]
  relative binding activity (% of GpH7-B3/GpL16-k0): 8

B19: GpH7-B3 E269W/GpL16-k0 (antibody, human IgG1)
heavy: QVQLVQSGAEVKKPGASVTVSCKASGYTFTDYEMHWIRQPPGEGLEWIGAIDPKTGDTAYSESFQDRVTLTADKSTSTAYMELSSLTSEDTAVYYCTRFYSYTYWGQGTLVTVSS[here human IgG1 constant region with E269W K439E (EU numbers) without letters]
light: B1 light
[9]
  relative binding activity (% of GpH7-B3/GpL16-k0): 9

B20: GpH7-B3 E269I/GpL16-k0 (antibody, human IgG1)
heavy: QVQLVQSGAEVKKPGASVTVSCKASGYTFTDYEMHWIRQPPGEGLEWIGAIDPKTGDTAYSESFQDRVTLTADKSTSTAYMELSSLTSEDTAVYYCTRFYSYTYWGQGTLVTVSS[here human IgG1 constant region with E269I K439E (EU numbers) without letters]
light: B1 light
Human FcγRIIb (human) [10]
  relative binding activity (% of GpH7-B3/GpL16-k0): 9
